Paper PMC12136788
The list shows a part of the results.

T1: UNK ZnF1-6 (called full-length) (human, UniProt Q9C0B0 30-357)
T1 sequence: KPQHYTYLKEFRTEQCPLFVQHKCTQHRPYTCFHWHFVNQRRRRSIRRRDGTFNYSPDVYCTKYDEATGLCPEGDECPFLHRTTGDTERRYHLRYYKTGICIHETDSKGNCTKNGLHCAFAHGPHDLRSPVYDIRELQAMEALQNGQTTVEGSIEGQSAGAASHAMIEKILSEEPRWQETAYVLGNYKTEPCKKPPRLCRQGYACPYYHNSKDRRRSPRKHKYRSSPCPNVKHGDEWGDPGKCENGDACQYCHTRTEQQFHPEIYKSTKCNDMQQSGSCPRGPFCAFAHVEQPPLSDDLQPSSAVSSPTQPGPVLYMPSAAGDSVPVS

B1: chr7:132784869:132785660:-|three_prime_utr|ENSG00000106554|control|control|control (ssRNA)
RNA: GGGAGUUCUACAGUCCGACGAUCCUUUCAGAAUGAGCAAAACACCAUCAACGUUAAUUCCAGAGAUGGAACAUUUUUUUUCCUAGUGAGAAAACAACCCAUUUGAAGAGAAGACCACUAAUGAGAAGACCACUAAAGAGAGACCAACAGAGGAUUGAGCAUCA
B2: ENSG00000198589:be:win_6401|CDS|ENSG00000198589|bound_else_gene|NA|bound_elsewhere_windowed (ssRNA)
RNA: GGGAGUUCUACAGUCCGACGAUCGUUAUCUUUUGCAAAAUACAGCCCUGGAGAUCUUUAUGGCAAACAGAGUUGCUGUGAUGUUCAACUUCCCAGACCCUGCAACAGUAAAGAAAGUGGUUAACUAUCUACCUCGUGUUGGCGCAACAGAGGAUUGAGCAUCA
B3: chr17:15571490:15574098:-|three_prime_utr|ENSG00000251537|control|control|control (ssRNA)
RNA: GGGAGUUCUACAGUCCGACGAUCGGAAAAUGAAACAAAUGACAAUGUCAUUGCAUUGAUUUUGUUCUCAUUAAAUGGUAUUUUAGCUAUAAACAUUUUCCCCUUUGAUUUGCAAAAAAAAAUUAUAGAAAAUGUCUAUGUUGCCAACAGAGGAUUGAGCAUCA
B4: chr10:32033860:32033975:-|CDS|ENSG00000170759|unk|total|mutant (ssRNA)
RNA: GGGAGUUCUACAGUCCGACGAUCCACAGUGGAUAAAGAUAUUACUCUUACCAAUGAUAAACCAGCAACCGCAAUUGGAGUUACCGGAAAUUUUACUGAUGCUGAAAGAAGAAAGUGUGAAGAAGAAAUUGCUAAAUUAUACAACAACAGAGGAUUGAGCAUCA
B5: chr19:37127587:37127689:+|CDS|ENSG00000197050|unk|total|mutant (ssRNA)
RNA: GGGAGUUCUACAGUCCGACGAUCUAUGCAUGUAAGGAAUGUGGGAAGGCCUUUACUCAAAGCUCACAACUUAUUUUACAUCACCGAAUUCAUACUGGUGAAAAACCAUAUAAAUGUGAAGAAUGUGGGAAAGCCUUUAUUCGUCAACAGAGGAUUGAGCAUCA
B6: chr9:76611375:76614569:-|three_prime_utr|ENSG00000106772|control|control|control (ssRNA)
RNA: GGGAGUUCUACAGUCCGACGAUCAUGUUACCUUUUUCCACUUUGCACUACCUGGUGCCAUUCUAAAUUUCUAAGGGGAAAAAUAGAAAGUUUGUUUACUCUUAAGAUAUUUUAUGAAAUUGUGUGUACUUUCCUAUUUUGCCACAACAGAGGAUUGAGCAUCA
B7: chr2:227556236:227556337:+|3pUTR|ENSG00000173744|msi1|total|mutant (ssRNA)
RNA: GGGAGUUCUACAGUCCGACGAUCUGUUGAAUGCCUUUUUGCAAUGAUGACUGAGUUGUUAUCACCGUAUUUUAAAACCUGUACCGUGUUUCCGACUUGUUAAAACAUUGCUGUCCCGUGUACAUCCCGCUAAAAGUGUGGUUUCAACAGAGGAUUGAGCAUCA
B8: chr1:202726062:202726163:-|3pUTR|ENSG00000117139|unk|FALSE|unique (ssRNA)
RNA: GGGAGUUCUACAGUCCGACGAUCGAAAUGCACCUGAUUUGCCAUUAUACCCACCAUCAAAAGCAACAUGGCCCUUUGGGUAUUAGUGCAAGAUUAGCCUAAGAAUAGAGUAGAUCUCUACCUGGAAGAGGGUGAAACAUGGCUCAACAGAGGAUUGAGCAUCA
B9: chr5:171862525:171862626:-|3pUTR|ENSG00000072803|msi1|FALSE|unique (ssRNA)
RNA: GGGAGUUCUACAGUCCGACGAUCGACAGUGCAUGGAAAGGACGUUGGCAUCCAAUUGGCACUCCUUCUCCCUUAUUCAAUAUUAGGUUUGAUUUGCCCUUCGCCAUUGUUUCCAAAGAUCAAGGAAUGUCAAUAACAUUUUAACAACAGAGGAUUGAGCAUCA
B10: ENSG00000029725:stop:overlap|stop_codon|ENSG00000029725|stop_codon|NA|stop_codon (ssRNA)
RNA: GGGAGUUCUACAGUCCGACGAUCAAAAUGAAAUGAAAAAGGAUCCCAUCCAGGAUACCAUAUUGCAUUUAGUUGUGUCUCCUUAGAUGCCUCUUGGCUGUGACAGUUUCUCAGAUUUUUCUUGUUUUUAAUGACCUUUCUGUCCAACAGAGGAUUGAGCAUCA
B11: ENSG00000139921:stop:overlap|stop_codon|ENSG00000139921|stop_codon|NA|stop_codon (ssRNA)
RNA: GGGAGUUCUACAGUCCGACGAUCUUCCACAGAAUGCCAUAAGACAACGCUCUCUGGGUCCAUCAUUGGCCACAGAUAAAUCCUAGUUAAAUUUUAUAGUUAUCUUAAUAUUAUGAUUUUGAUAAAAACAGAAGAUUGAUCAUUCAACAGAGGAUUGAGCAUCA
B12: chr1:6592219:6592320:-|3pUTR|ENSG00000162413|unk|total|mutant (ssRNA)
RNA: GGGAGUUCUACAGUCCGACGAUCCCCAAAGCCGCCUUGGCUUGAGUUUUUGUCCUUGCCUCCUUUUCCGAGAAGAGGGCAUUCCGACUGCAUUUUCCUGGUUAAAGAAGGUUAAAGCAAAUGUUUAUUGCCUUUUCCCGUGAACAACAGAGGAUUGAGCAUCA
B13: ENSG00000107863:be:win_901|CDS|ENSG00000107863|bound_else_gene|NA|bound_elsewhere_windowed (ssRNA)
RNA: GGGAGUUCUACAGUCCGACGAUCGUGAGGUAUGGCGUGAGUGAGCAGACCUCUUUAAAAACAGUGUCAAGAACCACAUCACCACCAUUAUCAAUUCCCACCACUCAUCUAAUUCAUCAGCCUGCAGGCUCCAGAUCACUGGAACAACAGAGGAUUGAGCAUCA
B14: ENSG00000070961:be:win_3501|CDS|ENSG00000070961|bound_else_gene|NA|bound_elsewhere_windowed (ssRNA)
RNA: GGGAGUUCUACAGUCCGACGAUCCGAAGAUGAUGCUCCUACAAAACGUAACUCCAGUCCUCCACCCUCUCCCAACAAAAAUAACAAUGCUGUUGACAGUGGAAUUCACCUUACAAUAGAAAUGAACAAGUCUGCUACCUCUUCCAACAGAGGAUUGAGCAUCA
B15: chr8:87872786:87873971:-|CDS|ENSG00000176566|control|control|control (ssRNA)
RNA: GGGAGUUCUACAGUCCGACGAUCUUGUCUCAGCAGGUCCUGUUGACCAACGUGGUGACGGGACACCAGCAGUCAUUUGGGACUAGCAGUGAUGUCUUGGCCCAGCAGUUUGCAAUCAUGACUCCUUUGCUGUUUAAUGGCUGUCAACAGAGGAUUGAGCAUCA
B16: chr15:66548596:66548706:+|3pUTR|ENSG00000174442|unk|total|mutant (ssRNA)
RNA: GGGAGUUCUACAGUCCGACGAUCCCGCAAGGGCUCUGAAAUGACAAAGAGAACGAGCACCACAAAUGAGAACAGGAUCAUUUCCGUAAAUACAGCUUUAUCCCAAAAGCUUUAACUGUAUUGGGAAAACUUAAAAAACCGCAUCAACAGAGGAUUGAGCAUCA
B17: ENSG00000125968:stop:overlap|stop_codon|ENSG00000125968|stop_codon|NA|stop_codon (ssRNA)
RNA: GGGAGUUCUACAGUCCGACGAUCGCACCCUCAACGGCGAGAUCAGCGCCCUGACGGCCGAGGUGAGAUCCAGAUCCGACCACUAGAUCAUCCUUAUACCGACGGGGAAACGGAGGCCAGAGAGGGCGUGGGCGCUUGCACCACCAACAGAGGAUUGAGCAUCA
B18: chr4:140153917:140154018:-|5pUTR|ENSG00000196782|msi1|FALSE|bound_elsewhere (ssRNA)
RNA: GGGAGUUCUACAGUCCGACGAUCUUUGCAGUCGCCUCGGACUGUCCAUGUGUUUACUUCCCCCAGCCCGAGGAUUCGAUAUCUAGGUUCCUGUGAAAUGCAACUGAGCAGCCAAAGUACUUUGAGAACACGGGGCGGCAUAAACAACAGAGGAUUGAGCAUCA
B19: chr15:78897113:78897311:+|3pUTR|ENSG00000185787|unk|FALSE|unique (ssRNA)
RNA: GGGAGUUCUACAGUCCGACGAUCUAACAAUUGAUGUUUGUUUUCUGUUUGAUUUUAAACAGAGAAAAAAUAAAAGGGGGUAAUAGCUCCUUUUUUCUUCUUUCUUUUUUUUUUUCAUUUCAAAAUUGCUGCCAGUGUUUUCAACAACAGAGGAUUGAGCAUCA
B20: ENSG00000136451:be:win_3751|3pUTR|ENSG00000136451|bound_else_gene|NA|bound_elsewhere_windowed (ssRNA)
RNA: GGGAGUUCUACAGUCCGACGAUCCUCCACAGUGGUCCAAGGAGCAGUCCUCAGUGGGGGCAGGUGUGGGCCCUACCCCUAAGCUAGAAUGUGGUUGUCAGAACCCUGAAAGUAUUAGUUCUAAAAAAAAAAAGAUAUAUACUACAACAGAGGAUUGAGCAUCA
B21: chr8:96333981:96334082:+|3pUTR|ENSG00000156471|msi1|total|mutant (ssRNA)
RNA: GGGAGUUCUACAGUCCGACGAUCUUAAGUUCAGGCCACUUUUCUGUCUUUUAUUUGGUUACUGUUGUUAUUUGUUUUUAAGUCCGGAUGCUUUUUAACAGCCUUCCGAAGCCGCUGCUGAAAUUGAUACUGGGGGAAGGGUUCCAACAGAGGAUUGAGCAUCA
B22: chr2:73730642:73730743:-|CDS|ENSG00000144034|unk|total|mutant (ssRNA)
RNA: GGGAGUUCUACAGUCCGACGAUCUUCAGACGCCGGAAACAAUGGUUAAUGAUCUUGUGUUUUUUUUUUCAUUUUUUUUCUCUCCGAUUUCAGAGGCUUUGAAAAAAUUUGGUAUCUCAGCAAAUGACACUUCAAUUCUAAUUGCAACAGAGGAUUGAGCAUCA

Biological target: T1, UNK ZnF1-6 (called full-length)
Test: nsRBNS (natural sequence RNA bind-n-seq); RBNS binding buffer (assumed for nsRBNS): 25 mM Tris pH 7.5, 150 mM KCl, 3 mM MgCl2, 0.01% Triton X-100, 500 ug/ml BSA, 20 U/ml SUPERase-In, 4 C; UNK is unkempt and MSI1 is Musashi-1; names of the RNAs are library labels; protein concentration not given here; high values mean tight binding

First: B1
Second: B2
The binding signal of the first is lower: 0.381 enrichment R for the first, 0.572 enrichment R for the second.

Going from B3 to B4, the binding signal falls from 0.581 enrichment R to 0.53 enrichment R.

Going from B5 to B6, the binding signal rises from 0.323 enrichment R to 0.818 enrichment R.

Going from B7 to B8, the binding signal rises from 0.259 enrichment R to 0.635 enrichment R.

Compared with B9, B10 is lower in binding signal: 0.962 enrichment R for the first, 0.907 enrichment R for the second.

First: B11
Second: B12
The binding signal of the first is higher: 0.941 enrichment R for the first, 0.414 enrichment R for the second.

First: B13
Second: B14
The binding signal of the first is lower: 0.806 enrichment R for the first, 1.65 enrichment R for the second.

First: B15
Second: B16
The binding signal of the first is higher: 0.434 enrichment R for the first, 0.299 enrichment R for the second.

First: B17
Second: B18
The binding signal of the first is lower: 0.625 enrichment R for the first, 0.686 enrichment R for the second.

Compared with B19, B20 is higher in binding signal: 0.958 enrichment R for the first, 1.48 enrichment R for the second.

Compared with B21, B22 is lower in binding signal: 0.869 enrichment R for the first, 0.388 enrichment R for the second.
